Consider five molecules from PMC10219652, “Insights into cargo sorting by SNX32 and its role in neurite outgrowth” (eLife, 2023).

Amino acid sequences for entries named in this document (tags omitted). A change or cut given only in a name is not applied to a line headed by its entry. Residues count along the entry.
UniProt Q13596: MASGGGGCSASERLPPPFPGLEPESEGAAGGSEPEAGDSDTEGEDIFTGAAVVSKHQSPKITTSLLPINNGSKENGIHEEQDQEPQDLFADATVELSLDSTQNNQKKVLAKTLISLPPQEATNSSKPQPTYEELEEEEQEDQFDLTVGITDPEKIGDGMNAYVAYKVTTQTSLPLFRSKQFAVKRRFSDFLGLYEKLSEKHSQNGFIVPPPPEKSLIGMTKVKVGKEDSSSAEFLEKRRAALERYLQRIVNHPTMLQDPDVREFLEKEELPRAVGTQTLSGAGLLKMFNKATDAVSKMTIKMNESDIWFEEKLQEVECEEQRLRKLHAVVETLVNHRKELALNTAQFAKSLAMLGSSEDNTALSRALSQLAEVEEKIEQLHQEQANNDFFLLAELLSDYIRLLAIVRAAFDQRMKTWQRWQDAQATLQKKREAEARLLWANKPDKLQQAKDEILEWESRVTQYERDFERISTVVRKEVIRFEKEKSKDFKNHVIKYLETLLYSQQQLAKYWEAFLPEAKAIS
UniProt P11717, residues 41-2491: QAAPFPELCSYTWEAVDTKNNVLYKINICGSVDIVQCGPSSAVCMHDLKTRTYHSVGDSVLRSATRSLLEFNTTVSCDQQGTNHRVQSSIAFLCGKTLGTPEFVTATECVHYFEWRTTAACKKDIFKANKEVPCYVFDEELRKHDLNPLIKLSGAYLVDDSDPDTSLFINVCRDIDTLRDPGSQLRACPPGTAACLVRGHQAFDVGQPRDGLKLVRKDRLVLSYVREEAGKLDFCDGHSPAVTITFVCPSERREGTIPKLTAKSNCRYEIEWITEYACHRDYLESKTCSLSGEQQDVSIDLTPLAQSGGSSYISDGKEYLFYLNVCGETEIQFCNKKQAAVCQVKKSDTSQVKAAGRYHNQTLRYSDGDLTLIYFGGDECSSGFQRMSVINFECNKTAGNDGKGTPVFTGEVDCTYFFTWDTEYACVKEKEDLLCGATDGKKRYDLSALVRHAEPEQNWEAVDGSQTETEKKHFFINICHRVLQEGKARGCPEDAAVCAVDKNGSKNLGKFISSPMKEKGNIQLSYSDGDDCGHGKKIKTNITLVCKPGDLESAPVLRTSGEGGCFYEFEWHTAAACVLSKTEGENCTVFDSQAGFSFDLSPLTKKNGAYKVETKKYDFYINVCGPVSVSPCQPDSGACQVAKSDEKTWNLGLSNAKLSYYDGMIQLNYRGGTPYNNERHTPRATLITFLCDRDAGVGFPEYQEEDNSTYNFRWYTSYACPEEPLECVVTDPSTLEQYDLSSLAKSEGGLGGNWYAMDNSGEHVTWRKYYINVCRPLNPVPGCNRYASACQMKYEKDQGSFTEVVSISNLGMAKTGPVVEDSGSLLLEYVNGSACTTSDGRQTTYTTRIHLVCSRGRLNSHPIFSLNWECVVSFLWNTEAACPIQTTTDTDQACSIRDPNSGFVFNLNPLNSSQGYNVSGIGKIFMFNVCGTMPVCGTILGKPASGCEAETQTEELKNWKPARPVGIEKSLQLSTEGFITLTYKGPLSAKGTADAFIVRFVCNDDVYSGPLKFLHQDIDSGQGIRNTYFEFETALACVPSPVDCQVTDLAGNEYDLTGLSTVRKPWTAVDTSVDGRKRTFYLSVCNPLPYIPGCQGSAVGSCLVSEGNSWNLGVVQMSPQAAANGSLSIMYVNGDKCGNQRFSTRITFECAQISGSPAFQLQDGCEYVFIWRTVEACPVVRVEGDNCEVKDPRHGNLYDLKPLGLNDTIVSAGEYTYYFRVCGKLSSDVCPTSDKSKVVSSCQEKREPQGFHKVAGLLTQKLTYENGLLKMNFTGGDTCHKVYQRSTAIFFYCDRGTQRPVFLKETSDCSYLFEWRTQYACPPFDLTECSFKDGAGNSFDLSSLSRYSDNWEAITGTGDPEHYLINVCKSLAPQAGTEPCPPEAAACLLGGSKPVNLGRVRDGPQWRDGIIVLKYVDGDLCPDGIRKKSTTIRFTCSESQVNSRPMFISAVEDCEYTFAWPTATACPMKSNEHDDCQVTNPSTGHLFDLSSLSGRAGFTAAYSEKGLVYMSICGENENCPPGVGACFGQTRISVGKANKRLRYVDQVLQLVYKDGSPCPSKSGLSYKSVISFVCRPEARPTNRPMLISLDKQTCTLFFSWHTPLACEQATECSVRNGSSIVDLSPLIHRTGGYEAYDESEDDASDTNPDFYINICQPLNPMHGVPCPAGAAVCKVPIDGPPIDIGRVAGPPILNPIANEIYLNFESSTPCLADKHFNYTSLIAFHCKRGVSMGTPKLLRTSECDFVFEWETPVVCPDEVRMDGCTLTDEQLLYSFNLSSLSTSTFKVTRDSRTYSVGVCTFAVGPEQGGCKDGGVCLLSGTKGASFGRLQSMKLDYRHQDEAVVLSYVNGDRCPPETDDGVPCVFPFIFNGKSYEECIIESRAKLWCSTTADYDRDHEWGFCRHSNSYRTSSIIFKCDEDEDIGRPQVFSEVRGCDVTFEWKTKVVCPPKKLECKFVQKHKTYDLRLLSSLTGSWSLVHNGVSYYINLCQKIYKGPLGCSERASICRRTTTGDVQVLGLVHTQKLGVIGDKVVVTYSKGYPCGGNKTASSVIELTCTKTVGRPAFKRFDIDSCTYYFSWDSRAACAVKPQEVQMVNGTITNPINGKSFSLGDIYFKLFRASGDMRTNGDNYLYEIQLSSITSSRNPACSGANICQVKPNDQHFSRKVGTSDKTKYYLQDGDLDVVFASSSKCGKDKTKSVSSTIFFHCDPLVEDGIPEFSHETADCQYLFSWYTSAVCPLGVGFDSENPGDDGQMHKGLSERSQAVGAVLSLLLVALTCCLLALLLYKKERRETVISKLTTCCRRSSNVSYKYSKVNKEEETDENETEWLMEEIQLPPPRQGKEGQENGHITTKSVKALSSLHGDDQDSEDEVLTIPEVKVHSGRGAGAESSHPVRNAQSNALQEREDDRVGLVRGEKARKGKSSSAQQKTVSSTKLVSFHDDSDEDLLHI

One experiment addresses T1, His-SNX32ΔC (UniProt Q86XE0).
T1 sequence: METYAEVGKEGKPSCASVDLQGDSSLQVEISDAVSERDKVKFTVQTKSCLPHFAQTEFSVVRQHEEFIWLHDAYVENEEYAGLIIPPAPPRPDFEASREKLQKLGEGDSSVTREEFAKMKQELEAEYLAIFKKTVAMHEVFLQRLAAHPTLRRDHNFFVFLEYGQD
In words: pull-down; 20 µg of His SNX32ΔC bound to Ni-NTA beads, incubated with membrane-enriched HeLa cell lysate for 2 hr at 4°C; SDS-PAGE and immunoblot; only the target purified. On the technique in general: A western blot detects proteins with antibodies after separation by electrophoresis.

The target in another experiment is T2, GFP-SNX32 F131D (UniProt Q86XE0).
T2 sequence: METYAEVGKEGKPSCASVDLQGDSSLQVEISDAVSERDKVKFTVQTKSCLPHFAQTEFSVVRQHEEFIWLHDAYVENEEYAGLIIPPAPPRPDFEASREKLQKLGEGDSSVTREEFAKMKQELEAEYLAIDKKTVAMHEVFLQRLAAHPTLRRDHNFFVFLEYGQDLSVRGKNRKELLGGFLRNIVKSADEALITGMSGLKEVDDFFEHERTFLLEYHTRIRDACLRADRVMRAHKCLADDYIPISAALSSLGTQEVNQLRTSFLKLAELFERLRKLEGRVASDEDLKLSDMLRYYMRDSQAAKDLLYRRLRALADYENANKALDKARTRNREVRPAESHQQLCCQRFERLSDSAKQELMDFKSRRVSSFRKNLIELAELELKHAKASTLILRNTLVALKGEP
In words: co-IP; GBP-IP of GFP-tagged SNX proteins from lysates of transfected cells (HeLa by the text; HEK293T by the legends of Figure 6A, C and I; the legend of Figure 6I also says GFP trap); endogenous TfR, CIMPR, SNX1 or BSG detected by immunoblot; values are the ratio of prey to GFP band intensity.

The target of another experiment is T3, GFP-SNX32 (UniProt Q86XE0).
T3 sequence: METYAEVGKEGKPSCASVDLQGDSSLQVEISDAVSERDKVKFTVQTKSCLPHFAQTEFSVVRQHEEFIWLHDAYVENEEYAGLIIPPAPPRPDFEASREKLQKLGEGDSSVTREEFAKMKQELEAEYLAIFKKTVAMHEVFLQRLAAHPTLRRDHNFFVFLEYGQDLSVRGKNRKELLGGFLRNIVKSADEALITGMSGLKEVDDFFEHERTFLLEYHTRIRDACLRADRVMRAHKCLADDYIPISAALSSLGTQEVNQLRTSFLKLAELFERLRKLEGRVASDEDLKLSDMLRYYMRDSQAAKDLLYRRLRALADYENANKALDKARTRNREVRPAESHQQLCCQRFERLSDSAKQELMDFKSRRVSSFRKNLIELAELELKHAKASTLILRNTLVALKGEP
The experiment is described as above.

Another experiment deals with GFP-SNX1 (UniProt Q13596). In words: co-IP; GFP nanobody-based immunoprecipitation (GBP-IP): GST-GBP on glutathione sepharose beads incubated 2 hr at 4°C with extracts of HEK293T cells overexpressing GFP- and HA-tagged SNX proteins; washed with 1x PBS; immunoblot with anti-HA and anti-GFP; values are the ratio of HA to GFP band intensity.
For the next experiment, the target named is T4, GFP-SNX4 (UniProt O95219).
T4 sequence: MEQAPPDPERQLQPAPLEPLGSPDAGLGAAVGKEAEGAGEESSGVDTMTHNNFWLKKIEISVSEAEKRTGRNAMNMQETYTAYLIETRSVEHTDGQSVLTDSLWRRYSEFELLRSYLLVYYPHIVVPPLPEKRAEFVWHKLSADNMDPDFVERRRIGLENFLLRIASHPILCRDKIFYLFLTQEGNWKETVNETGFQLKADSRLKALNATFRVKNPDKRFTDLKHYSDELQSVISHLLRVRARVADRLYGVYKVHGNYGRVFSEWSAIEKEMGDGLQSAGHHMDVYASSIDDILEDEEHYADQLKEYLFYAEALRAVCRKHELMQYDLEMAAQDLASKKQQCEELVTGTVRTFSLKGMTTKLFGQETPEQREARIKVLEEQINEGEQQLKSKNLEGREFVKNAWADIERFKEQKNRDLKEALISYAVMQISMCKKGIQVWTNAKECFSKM
The experiment is described as above.

In another experiment the target is T5, GFP-SNX4, O95219.
T5 chain: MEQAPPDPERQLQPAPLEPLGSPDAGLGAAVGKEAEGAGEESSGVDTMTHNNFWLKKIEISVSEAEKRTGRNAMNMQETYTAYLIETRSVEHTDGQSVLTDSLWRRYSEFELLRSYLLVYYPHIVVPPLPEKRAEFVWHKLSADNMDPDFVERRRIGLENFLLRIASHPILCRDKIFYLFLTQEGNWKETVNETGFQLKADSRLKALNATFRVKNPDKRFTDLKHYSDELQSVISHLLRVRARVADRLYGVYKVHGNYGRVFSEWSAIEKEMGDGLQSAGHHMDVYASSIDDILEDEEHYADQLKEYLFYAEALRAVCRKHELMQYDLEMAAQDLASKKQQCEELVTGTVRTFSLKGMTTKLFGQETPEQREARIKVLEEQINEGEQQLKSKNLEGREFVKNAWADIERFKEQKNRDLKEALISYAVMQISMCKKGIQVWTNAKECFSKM
Put plainly: co-IP; GBP-IP as above with lysates of HeLa cells transiently transfected with wild-type or mutant GFP-SNX4 and HA-SNX32 (legend of Figure 1H); values are the ratio of HA to GFP band intensity. As to conditions: remark: other sources report otherwise.

These are yes or no findings as the source states them, for the method shown. Binding seen in cells or lysates may run through a third protein. Some entries that bind do so weakly or less than the wild type. Sequences can lack the tags named with a protein.

Regarding “Cation-Independent Mannose-6-Phosphate Receptor (CIMPR) (from UniProt P11717 41-2491)”, the binding entry with His-SNX32ΔC is reported as “binds”; with GFP-SNX32 F131D, “no binding”.
Take “endogenous SNX1 (from UniProt Q13596-1 1-522)”: the binding entry with GFP-SNX32 and with GFP-SNX32 F131D was “binds” each time.

B1: HA-SNX32ΔC (domain or fragment, UniProt Q86XE0-1 1-166)
chain: METYAEVGKEGKPSCASVDLQGDSSLQVEISDAVSERDKVKFTVQTKSCLPHFAQTEFSVVRQHEEFIWLHDAYVENEEYAGLIIPPAPPRPDFEASREKLQKLGEGDSSVTREEFAKMKQELEAEYLAIFKKTVAMHEVFLQRLAAHPTLRRDHNFFVFLEYGQD
As for B1, the binding result with GFP-SNX1 and with GFP-SNX4 was “no binding” throughout.

B2: HA-SNX32ΔN (domain or fragment, UniProt Q86XE0-1 167-403)
chain: LSVRGKNRKELLGGFLRNIVKSADEALITGMSGLKEVDDFFEHERTFLLEYHTRIRDACLRADRVMRAHKCLADDYIPISAALSSLGTQEVNQLRTSFLKLAELFERLRKLEGRVASDEDLKLSDMLRYYMRDSQAAKDLLYRRLRALADYENANKALDKARTRNREVRPAESHQQLCCQRFERLSDSAKQELMDFKSRRVSSFRKNLIELAELELKHAKASTLILRNTLVALKGEP
With B2, the binding entry in the experiment with GFP-SNX1 and with GFP-SNX4 was “binds” each time.

B3: HA-SNX32 full-length (FL) (natural protein, UniProt Q86XE0-1 1-403, looked up)
chain: METYAEVGKEGKPSCASVDLQGDSSLQVEISDAVSERDKVKFTVQTKSCLPHFAQTEFSVVRQHEEFIWLHDAYVENEEYAGLIIPPAPPRPDFEASREKLQKLGEGDSSVTREEFAKMKQELEAEYLAIFKKTVAMHEVFLQRLAAHPTLRRDHNFFVFLEYGQDLSVRGKNRKELLGGFLRNIVKSADEALITGMSGLKEVDDFFEHERTFLLEYHTRIRDACLRADRVMRAHKCLADDYIPISAALSSLGTQEVNQLRTSFLKLAELFERLRKLEGRVASDEDLKLSDMLRYYMRDSQAAKDLLYRRLRALADYENANKALDKARTRNREVRPAESHQQLCCQRFERLSDSAKQELMDFKSRRVSSFRKNLIELAELELKHAKASTLILRNTLVALKGEP
notes: Sorting nexin 32 (SNX32, SNX6b); pcDNA3 HA N(I)-SNX32 FL subcloned from pEGFP C1-SNX32FL; also called HA-SNX32FL; HA-SNX32 WT; source: HEK293T or HeLa, transiently transfected, in lysate
As for B3, the binding result with GFP-SNX4, O95219 is “binds”.
